Target: the molecule itself
Experiment: cryo-EM structure

B1: hTRPV[…]L (human TRPV4 channel with the mutation F617L) (natural protein)
chain: not shown
  stoichiometry N: 4

From doi:10.1101/2024.10.16.618766 (bioRxiv, 2024)
